Reference: PubChem BioAssay AID686979 (National Center for Advancing Translational Sciences (NCATS), 2013)
The campaign covered roughly 420,000 compounds. About 50,000 (12%) were called active. Inconclusive means that the source gave no clear call. Such entries were picked first, then a sample of the others. The call rests on the fitted dose curve; in most records, active means well fitted inhibition curve with a large enough effect; inconclusive means small, poorly fitted or top-dose-only effect; inactive means flat fitted curve, though single readings scatter. No potency is given beside an inconclusive call; the fits are too rough.

assay: qHTS for Inhibitors of human tyrosyl-DNA phosphodiesterase 1 (TDP1): qHTS in cells in presence of CPT; settings: chicken DT40 Tdp1-/-;hTDP1 cells + 20 nM CPT, ATP luminescence, 48 h; activity change, negative = growth inhibition: at 46.2 µM (top of the series) unless noted; further: nearly all actives have a fitted effect of over 55% in size
Procedure, shortened: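 Chicken DT40 Tdp1-/- cells stably complemented with human TDP1 were seeded at 400 cells/well in medium containing 20 nM camptothecin, exposed to pin-transferred compounds, and grown at 37 °C for at least 48 hr. Viability was read as ATP luminescence.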
On the % scale 0 is the no-effect control and ±100 the full control effect; potency means the concentration at half of the fitted maximal effect; tags describe the fitted curve by direction and shape.

| Structure (SMILES) | Potency | activity change, negative = growth inhibition |
| --- | --- | --- |
| CCC(Sc1nc2ccccc2c2nc(CCc3c(C)n[nH]c3C)nn12)C(=O)Nc1ccc(F)cc1 (centres undefined) | inconclusive [inhibitor, single point] | – |
| COc1ccccc1CNS(=O)(=O)c1ccc2[nH]c3c(c2c1)CCCCC3 | active: 10.3 µM | – |
| CCOc1ncccc1C(=O)NC(C)CCc1ccccc1 (centres undefined) | – | inactive: -26% |
| O=C(Nc1ccc(Cl)cc1)N1CC=CCC1 | inconclusive [inhibitor, single point] | – |
| CC1=C(c2ccc(C)cc2)S(=O)(=O)N(Cc2ccc(C(=O)NCc3cccc(C)c3)cc2)C1=O | inconclusive [inhibitor, single point] | – |
| CC(=O)N1c2ccc(S(=O)(=O)N(C)Cc3ccco3)cc2CC1C (centres undefined) | – | inactive: -8.17% |
| COc1cccc(C2CC(c3ccc(Cl)cc3Cl)n3nc(N)nc3N2)c1 (centres undefined) | inconclusive [inhibitor, partial curve] | – |
| C=CCSc1nnc2n(CCc3ccccc3)c(=O)c3c4c(sc3n12)COC(C)(C)C4 | active: 23.1 µM | – |
| COc1ccc(C2C(C#N)=C(N)N(c3sc4c(c3C#N)CCCC4)C3=C2C(=O)CC(C)(C)C3)cc1OC (centres undefined) | active: 18.4 µM | – |
| CCN(CC)c1ccc(C(=O)N/N=C(\C)c2cccc(OC)c2)cc1 | inconclusive [inhibitor, single point] | – |
| COc1ccc(OCc2nc3c4cc(OC)c(OC)cc4nc(=S)n3[nH]2)cc1 | active: 6.51 µM | – |
| CCOc1ccc2oc(C(=O)N3CCN(Cc4ccccc4)CC3)c(C)c2c1 | inconclusive [inhibitor, partial curve] | – |
| COC(=O)c1ccc(NC(=O)CSc2nc3ccc(OC)cc3[nH]2)cc1 | active: 23.1 µM | – |
| Cc1ccc(NC(=O)CSc2nc(C)c(Cc3ccccc3)c(=O)[nH]2)cc1 | inconclusive [inhibitor, single point] | – |
| Cc1[nH]c2c(ccc3ccccc32)c1C1C(CCN)C1(C)C (centres undefined) | inconclusive [inhibitor, single point] | – |
| COc1ccccc1C(=O)NC(=S)Nc1cccc2cc(O)ccc12 | inconclusive [inhibitor, single point] | – |
| CCC(=O)Nc1nc(C)c(C(=O)Nc2cccc(Cl)c2)s1 | inconclusive [inhibitor, single point] | – |
| O=C(NCc1ccccc1Br)C1CCCN(C(=O)N2CCOc3ccccc32)C1 (centres undefined) | inconclusive [inhibitor, single point] | – |
| COc1ccc(OCC(O)Cn2c(=N)n(Cc3ccccc3)c3ccccc32)cc1 (centres undefined) | inconclusive [inhibitor, full curve, poor fit] | – |
